# The whole screen tested about 360,000 compounds, of which about 7,500 (2.1%) were called active. The inconclusive results got no clear call from the source; some entries with a clear call stand among them for comparison. Calls come from the whole dose curve; as a rule, active = well fitted cell-killing curve with a large enough effect; inconclusive = small, poorly fitted or top-dose-only effect, or effect the other way, or another doubt; inactive = no such curve, though single readings can be large or run the other way. Potencies of inconclusive entries are left out as doubtful fits.
# Assay: qHTS for induction of synthetic lethality in tumor cells producing 2HG: qHTS for the HT-1080-IDH1KD cell line;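 for activity, negative = toxicity: 0% = DMSO wells and -100% = cell-free medium wells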
# Conditions: HT-1080 IDH1 knockdown viability, ATP luminescence, 48 h; activity, negative = toxicity: at 46.1 µM (top of the series) unless noted
# Summary of the method: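 Using the IDH1-knockdown HT-1080 line run in the same batch and compound series as the NT line, viability after 48 h at 37 °C was determined by CellTiter-Glo luminescence and expressed as % activity.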
# Potency is the fitted concentration of half-maximal effect; tags give direction and shape of the fitted curve.
SMILES,Potency,"activity, negative = toxicity"
COc1cc2cc(C(=O)N3CCOCC3)cc(-c3ccc(C)cc3)c2cc1OC,"inconclusive [cytotoxic, single point]",
O=C(Nc1ccc(Cl)c(Cl)c1)N1N=CCC1c1ccccc1 (stereo unspecified),"inconclusive [cytotoxic, partial curve]",
CCOc1ccc(/C=N/NC(=O)C2CCCC2)c(OCC)c1,,inactive: 2.8%
CCOC(=O)C1=C(C)Nc2ncnn2C1c1cc(Br)ccc1F (stereo unspecified),,inconclusive: -31.1% [cytotoxic]
CCCCCCCCn1c2c(c(=N)c3c1CCC3)CCCC2,active: 8.2 µM,
CCOC(=O)C1C(=O)CC(C)(O)C(C(=O)OCC)C1c1ccccc1 (stereo unspecified),,inactive: 17.4%
COC(=O)C1=CN(c2ccc3c(c2)OCO3)C(N)=C(C#N)C1c1ccc(-c2ccccc2)cc1 (stereo unspecified),active: 3.26 µM,
CCOc1ccc(Oc2cc(N)cc([N+](=O)[O-])c2)cc1,,inactive: -9.08%
CCOC(=O)c1ccc(NC(=O)c2cccc(C)c2[N+](=O)[O-])cc1,,inactive: -20.4%
CCN(CC)c1ccc(CNc2nc3ccccc3n2CCN2CCCCC2)cc1,"inconclusive [cytotoxic, single point]",
O=c1oc2ccccc2cc1-c1cn2ccccc2n1,active: 23.1 µM,
CCN(CC)c1ccc(/C=N/NC(=S)NCc2ccccc2)c(O)c1,"inconclusive [cytotoxic, single point]",
COC(=O)c1ccc(C(=O)OC)c(NC(=O)CN2CCN(c3ccccc3OC)CC2)c1,,inactive: 8.88%
CCOC(=O)c1nnn(-c2ccc([N+](=O)[O-])cc2[N+](=O)[O-])c1C,"inconclusive [cytotoxic, single point]",
O=C(N/N=C/c1ccncc1)c1ccccc1OCc1ccc(Br)cc1,"inconclusive [cytotoxic, partial curve]",
O=c1[nH]c(=S)c2ncn(-c3ccccc3)c2[nH]1,,inactive: 20.6%
Nc1ccc(-c2cnc(-c3ccc(N)cc3)nc2)cc1,"inconclusive [cytotoxic, partial curve]",
CCN(CC)C(=O)c1cccc(-c2csc(C(O)c3ccc(F)c(F)c3)n2)c1 (stereo unspecified),"inconclusive [cytotoxic, single point]",
Cc1ccc(NC(=O)CSc2nn(-c3ccc(Cl)cc3)c(=S)s2)cc1S(=O)(=O)N(C)C,,inconclusive: -16.3% [cytotoxic]
Cc1cccc(C2=NN(c3ccccc3)[C@H](CO)[C@H]2c2ccc(F)cc2)c1,"inconclusive [cytotoxic, single point]",
COc1cccc(CNC(=O)CN2C(=O)CC(c3ccccc3)=Nc3ccccc32)c1,,inactive: 4.15%
OC(c1ccc(F)c(F)c1)c1nc(-c2cccc(F)c2)cs1 (stereo unspecified),"inconclusive [cytotoxic, single point]",
Cc1ccc(-c2nc(NC(=O)c3nn(C)cc3[N+](=O)[O-])sc2C)cc1C,active: 4.11 µM,
COc1ccc(OC)c(S(=O)(=O)Nc2cccc3c(O)cccc23)c1,,inactive: -13.2%
Cc1nnc(SCc2ccc(F)cc2)n1NC/C=C/c1ccccc1,"inconclusive [cytotoxic, single point]",
Cc1cc(C)c(N2CCN(S(=O)(=O)N3CCCCCC3)CC2)c(C)c1,"inconclusive [cytotoxic, single point]",

SMILES,Potency,"activity, negative = toxicity"
COc1ccc(CN(C(=O)CN2C(=O)C(C)Oc3ccccc32)C2CCCC2)c(OC)c1 (stereo unspecified),"inconclusive [cytotoxic, single point]",
Cc1cc2cc3c(cc2nc1SCC(=O)Nc1nc(C)c(C)s1)OCO3,,inconclusive: -32% [cytotoxic]
CCC(C)c1ccccc1NC(=O)COC(=O)C1=COCCO1 (stereo unspecified),,inactive: 3.37%
CN1CCN(CC(=O)Nc2sc3c(c2C(=O)Nc2ccccc2)CCCC3)CC1,"inconclusive [cytotoxic, single point]",
Cc1ccc2[nH]c(=O)c(CN(c3cccc(C)c3C)S(=O)(=O)c3ccccc3)cc2c1,"inconclusive [rising, single point]",
O=C(NC(=S)NNC(=O)c1ccco1)c1ccc(F)cc1,"inconclusive [cytotoxic, single point]",
Cc1ccc(NC(=S)NNC(=O)c2c(Cl)c(C)nn2C)cc1,"inconclusive [cytotoxic, single point]",
Cc1ccc(OC(=O)c2ccc(S(=O)(=O)N(C)C)cc2)c(-n2nc3ccccc3n2)c1,,inactive: -2.04%
O=C(CCC(=O)Nc1ccc(Cl)cc1Cl)N/N=C/c1ccc([N+](=O)[O-])o1,"inconclusive [cytotoxic, single point]",
CCCc1c(-c2cccc(Cl)c2)ncn1Cc1cccc(-c2ccccc2)c1,active: 23.1 µM,
Cc1ccnc(NC(c2ccccc2)c2ccc3cccnc3c2O)c1 (stereo unspecified),"inconclusive [cytotoxic, partial curve]",
CCOC(=O)C1=C(C)NC(=O)NC1C (stereo unspecified),,inconclusive: 31%
COc1ccccc1-c1nnc(Nc2nc3c(OC)cccc3s2)o1,active: 0.461 µM,
Cc1cccc(-n2nnc3c(=O)n(CC(=O)Nc4cc(C)on4)cnc32)c1,,inactive: -0.412%
O=S(=O)(/N=C(/Nc1ccc(Cl)c(S(=O)(=O)Nc2ccccc2Cl)c1)c1ccc(F)cc1)c1ccccc1,"inconclusive [cytotoxic, single point]",
CCC(CO)[n+]1c(C)cc(/C=C2\Sc3ccccc3N2Cc2ccccc2)cc1C (stereo unspecified),active: 3.26 µM,
COc1ccc(C(=O)c2oc3ccc(OC)cc3c2NC(C)=O)cc1,"inconclusive [cytotoxic, single point]",
CCOC(=O)c1c(C)[nH]c(C(=O)OCC(=O)NCCc2ccc(OCC)c(OCC)c2)c1C,"inconclusive [cytotoxic, partial curve]",
CCc1ccccc1NC(=O)c1ccc(S(=O)(=O)N2CCCC2)cc1,,inactive: -1.31%
Cc1c(C(=O)N(Cc2ccccc2)C(C)C)oc2ccc(S(=O)(=O)N3CCOCC3)cc12,"inconclusive [cytotoxic, partial curve]",
CCN(CC)c1ccc2c(Cl)c(Br)c(=O)oc2c1,active: 20.6 µM,
O=c1[nH]c(SCCOc2cccc3ccccc23)nc2ccccc12,,inactive: 6.77%
O=C(Nc1ccc2c(c1)CCC2)C1CCN(c2c3c(nc4ncnn24)CCC3)CC1,"inconclusive [cytotoxic, partial curve]",
Cc1cc(N2CCCCC2)n2ncc(-c3ccccc3)c2n1,,inactive: -21.8%
C/C(CCc1ccc2c(c1)OCO2)=N\N=C(/N)SC1CC(=O)N(c2ccc(Cl)cc2)C1=O (stereo unspecified),"inconclusive [cytotoxic, single point]",
Cc1ccc(C(C)C)cc1OCC(=O)NCCCn1ccnc1,,inactive: 20.1%

SMILES,Potency,"activity, negative = toxicity"
CCCn1c(O)c(C=Nc2ccccc2)sc1=S,,inactive: -3.74%
CN1CCN(NC(=O)c2cc(Br)ccc2Cl)CC1,,inactive: 10.2%
CCC(Cc1ccccc1)NS(=O)(=O)c1ccc2c(c1)NC(=O)C(C)S2 (stereo unspecified),"inconclusive [cytotoxic, single point]",
O=C(NC(Nc1nc2ccc([N+](=O)[O-])cc2s1)(C(F)(F)F)C(F)(F)F)c1cccnc1,active: 13 µM,
CC1=CC(=NOC(=O)/C=C/c2ccccc2)C=C(C)C1=O,"inconclusive [cytotoxic, single point]",
CC(O)(c1cccc(F)c1)c1nc(-c2cc3ccccc3o2)cs1 (stereo unspecified),"inconclusive [cytotoxic, single point]",
COc1ccccc1C(=O)Nc1ccc2c(c1)nc1n2CCSC1,"inconclusive [cytotoxic, single point]",
COc1ccccc1CNC(=O)c1cc(S(=O)(=O)N2CCCC2)cn1C,,inactive: 2.69%
Cc1c(S(=O)(=O)N(C)C2CCCCC2)c(=O)n(C)c(=O)n1C,,inactive: 2.33%
C=CCNC(=O)c1ccc(NC(=O)C2=CSCCO2)cc1,,inactive: -24%
COc1cc(C(=O)NC(=S)NCc2ccncc2)cc(OC)c1OC,,inactive: 0.753%
C/C(=N\NC(=S)Nc1ccc(F)cc1)C1CC1,active: 11.2 µM,
OCCNCCCCOc1ccc(F)cc1,,inactive: 6.11%
CCCCCCCCCCCCCCCC[N+](C)(C)CC,active: 16.4 µM,
CCOc1cc(N2CCOCC2)c(OCC)cc1NC(=O)c1c(C)noc1C,,inactive: 3.4%
CCc1ccc2c(c1)C1(NN=C(c3ccccc3)S1)C(=O)N2 (stereo unspecified),"inconclusive [cytotoxic, partial curve]",
CC1(Br)C(Sc2ccccc2[N+](=O)[O-])=Nc2ccccc21 (stereo unspecified),"inconclusive [cytotoxic, full curve]",
COc1ccccc1NS(=O)(=O)c1cc(NC(=O)c2ccccc2C)ccc1N1CCOCC1,,inactive: -11.1%
COc1ccccc1CNC(=O)CN1C(=O)c2ccc([N+](=O)[O-])cc2C1=O,,inactive: 7.52%
CC(C)c1ccc(-c2nn(-c3ccccc3)cc2C2C(C#N)=C(N)OC3=C2C(=O)CC(C)(C)C3)cc1 (stereo unspecified),"inconclusive [cytotoxic, single point]",
COc1ccc(-c2cc(NC=O)c3ncc(-c4cccc(C(=O)N(C)C)c4)n3c2)c(OC)c1,"inconclusive [cytotoxic, full curve]",
CN(CC(=O)NC(=O)NCc1ccco1)Cc1nc2ccccc2c(=O)[nH]1,active: 11.2 µM,
COc1ccc(S(=O)(=O)Nc2cc(Cl)ccc2OC)cc1,"inconclusive [cytotoxic, partial curve]",
COc1ccc(CNCCc2ccc(Cl)cc2)cc1OCc1ccccc1,"inconclusive [cytotoxic, single point]",

# From PubChem BioAssay AID686971 (National Center for Advancing Translational Sciences (NCATS), 2013)
